Test results from PMC4336329 (PLoS ONE, 2015).
Hit rate of the full screen: of about 310,000 compounds, about 2,200 (0.71%) showed an effect of 50% or more. Effects have a minus sign here. The list shows a part of the results.

Biological target: human ether-à-go-go-related gene (hERG) potassium channel (human, UniProt Q12809)
Test: primary screen, population patch clamp on CHO cells stably expressing hERG

Sequence of human ether-à-go-go-related gene (hERG) potassium channel (Q12809 whole entry, looked up): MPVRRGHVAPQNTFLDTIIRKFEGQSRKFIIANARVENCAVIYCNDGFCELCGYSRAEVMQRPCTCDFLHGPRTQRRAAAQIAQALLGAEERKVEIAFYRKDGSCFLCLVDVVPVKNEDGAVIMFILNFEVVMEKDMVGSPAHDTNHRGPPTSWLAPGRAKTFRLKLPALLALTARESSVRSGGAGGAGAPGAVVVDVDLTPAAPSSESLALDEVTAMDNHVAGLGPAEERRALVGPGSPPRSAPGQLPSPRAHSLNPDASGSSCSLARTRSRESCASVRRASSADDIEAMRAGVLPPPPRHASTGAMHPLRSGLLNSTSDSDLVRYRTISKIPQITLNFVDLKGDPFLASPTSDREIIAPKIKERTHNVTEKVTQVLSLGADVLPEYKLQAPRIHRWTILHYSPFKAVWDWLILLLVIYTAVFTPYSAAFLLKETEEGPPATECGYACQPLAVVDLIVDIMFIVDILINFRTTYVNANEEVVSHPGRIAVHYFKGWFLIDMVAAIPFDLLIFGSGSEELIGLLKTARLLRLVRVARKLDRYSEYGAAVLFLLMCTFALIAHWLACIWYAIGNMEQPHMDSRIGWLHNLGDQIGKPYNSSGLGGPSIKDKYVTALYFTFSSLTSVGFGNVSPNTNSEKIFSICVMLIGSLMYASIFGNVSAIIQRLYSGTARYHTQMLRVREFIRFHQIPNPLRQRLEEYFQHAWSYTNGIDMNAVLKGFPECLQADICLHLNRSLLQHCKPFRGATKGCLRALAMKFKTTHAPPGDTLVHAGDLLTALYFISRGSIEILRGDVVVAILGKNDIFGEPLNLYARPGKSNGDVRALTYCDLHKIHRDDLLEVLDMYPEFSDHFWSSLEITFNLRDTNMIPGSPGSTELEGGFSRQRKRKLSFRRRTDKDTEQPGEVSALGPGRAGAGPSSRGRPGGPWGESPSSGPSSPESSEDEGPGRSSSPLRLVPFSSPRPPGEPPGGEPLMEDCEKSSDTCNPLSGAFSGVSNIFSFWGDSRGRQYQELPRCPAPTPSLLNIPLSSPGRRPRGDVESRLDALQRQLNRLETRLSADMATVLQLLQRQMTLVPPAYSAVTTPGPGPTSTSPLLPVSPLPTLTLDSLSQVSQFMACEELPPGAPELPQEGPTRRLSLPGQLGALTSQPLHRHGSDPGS

Row | SMILES | hERG current change (%, negative = inhibition) at 1uM
1 | CCN(CC)c1ccc(/C=N/NC(=O)c2ccco2)cc1 | 11.2%
2 | Cc1cccc(NCc2ccc(N(C)C)cc2)n1 | 12.2%
3 | COCc1cc(=O)[nH]c(/N=C(\N)Nc2cccc(C)c2)n1 | 9.75%
4 | Cc1c(Cl)cccc1Nc1nc(N)nc(CSc2ncccn2)n1 | 10.7%
5 | COc1cc(OC)cc(C(=O)NC(C)CCc2ccccc2)c1 (centres unmarked) | 8.33%
6 | Cc1cccc(NC(=O)CSCC(=O)Nc2cc(Cl)ccc2N2CCOCC2)c1 | 6.68%
7 | COc1ccc(NC(=O)c2cc(Cl)ccc2NC(=O)c2ccco2)c(OC)c1 | -24.5%
8 | Cc1ccccc1NC(=O)CC1S/C(=N/c2nccs2)N(C)C1=O (centres unmarked) | 7.1%
9 | CCC(C)c1ccccc1NC(=O)Cc1coc2cc3c(cc12)CCC3 (centres unmarked) | -0.676%
10 | Brc1ccc(-c2n(-c3ccccn3)c3ccccc3[n+]2-c2ccccn2)cc1.[I-] | 12.1%
11 | CC1CCCN(Cc2cccc(Oc3ccccc3)c2)C1 (centres unmarked) | -4.81%
12 | CCn1cc(CNCc2cn[nH]c2-c2cc3ccccc3o2)cn1 | 13.7%
13 | COc1ccc(N2CCN(C(=O)COC(=O)Cc3cccc(OC)c3)CC2)cc1 | 9.34%
14 | O=C(CC(=O)c1ccccc1O)c1cccc(F)c1 | -2.07%
15 | O=C(COc1ccccc1Cl)NNC(=O)c1ccc2nc[nH]c2c1 | 6.13%
16 | CCOC(=O)[C@H]1[C@H]2COc3ccc(Cl)cc3[C@@H]2N2C(=O)CN(Cc3ccc(C)cc3)C(=O)[C@@]12C | 13.4%
17 | COC(=O)NNC(=O)c1ccccc1OC | 14.9%
18 | COc1ccc(/C(C)=N\NC(=O)c2ccc3c(c2)OCO3)cc1OC | -7.69%
19 | Nc1n[nH]c2cccc(Cl)c12 | 13.7%
20 | CC(C)CCC1=NN(C(=O)c2ccco2)C(O)(C(F)(F)F)C1 (centres unmarked) | 9.45%
21 | CC(C)CNC(=O)C(=O)NCc1ccccn1 | 15.3%
22 | O=C(O)/C=C\C(=O)O.OCCN1CCN(C2CCC(c3ccc(F)cc3)c3ccc(F)cc32)CC1 (centres unmarked) | -15.5%
23 | CC(=O)Nc1ccc(NC(=O)Cc2sc(-c3cccnc3)nc2-c2ccc(C)cc2)cc1 | -4.89%

Row | SMILES | hERG current change (%, negative = inhibition) at 1uM
24 | CCc1nc(SCC(=O)Nc2ccccc2OC)n[nH]1 | 15.3%
25 | CCn1nc(C(=O)NNC(=O)COc2ccc(OC)cc2)c2ccccc2c1=O | 4.42%
26 | Cc1nn(-c2ccccc2Cl)c(Cl)c1/C=C(\C#N)C(N)=O | 8.67%
27 | COC(=O)c1cc(S(=O)(=O)Nc2ccc(C)c(F)c2)c[nH]1 | -3.6%
28 | O=C(NCc1ccncc1)c1cc2ccccc2nc1Cl | 7.01%
29 | Nc1cc(=O)[nH]c(SCC(=O)Nc2ccc([N+](=O)[O-])cc2)n1 | 7.83%
30 | CCOc1ccc(NC(=O)CC(NC(C)=O)c2ccccc2)cc1S(=O)(=O)N1CCCC1 (centres unmarked) | 7.96%
31 | CC1=NN(c2ccccc2)C(=O)C1/C=C1/C(=O)NC(=O)N(c2cc(C)cc(C)c2)C1=O (centres unmarked) | 12.8%
32 | Cc1cc(NC(=O)C2CC(=O)N(c3ccccc3)C2)no1 (centres unmarked) | 10.7%
33 | COCCOC(=O)C1=C(C)NC(=O)NC1c1cccc(F)c1 (centres unmarked) | 13.7%
34 | Fc1ccc(CNC(=S)NCc2ccc(F)cc2)cc1 | 4.95%
35 | O/N=C/c1cc(Br)ccc1OCc1ccc(F)cc1 | 7.49%
36 | CCOC(=O)CP(=O)(c1ccccc1)c1ccccc1 | 6.47%
37 | Cc1ccc(NC(=O)CN(C)C(=O)COc2ccc(C(=O)c3ccc(F)cc3)cc2)cc1 | 10%
38 | CCOC(=O)N1CCC(NC(=O)CCc2nc(C3=CCN(C)CC3)no2)CC1 | 5.15%
39 | Cc1cc(C)n2ncc(C(=O)Nc3ccc4c(c3)OCO4)c2n1 | 13.7%
40 | Nc1ccc(C(=O)OCC(=O)N2CCOCC2)cc1[N+](=O)[O-] | 14.8%
41 | CCCn1c(CCC(=O)O)ccc1-c1ccccc1 | 14.5%
42 | O=C(CCS(=O)(=O)c1cccc2nonc12)Nc1cccc2c1CCCC2 | -8.84%
43 | Cc1ccc(-c2ccc(=O)n(Cc3ccc(F)cc3)n2)cc1 | 5.66%
44 | O=C(CNC(=O)c1cccc(F)c1)N/N=C/c1cc(Br)ccc1OCc1ccccc1 | 7.27%
45 | CC(=O)C1C(c2ccncc2)NC(=O)NC1(O)C(F)(F)F (centres unmarked) | -6.59%
46 | CC1(C)Cc2c(sc(NC(=O)C(=O)NCC3CCCO3)c2C(N)=O)CO1 (centres unmarked) | 15.3%

Row | SMILES | hERG current change (%, negative = inhibition) at 1uM
47 | Cc1cc(C)nc(NS(=O)(=O)c2ccc(NC(=O)C3CC3)cc2)n1 | 16%
48 | CC(C(=O)Nc1c2c(cc3c1CCC3)CCC2)N1CCCC1.Cl.O (centres unmarked) | -2.04%
49 | COc1cccc(C(=O)NCC(C)(C)SCc2ccc(F)cc2)c1 | 6.06%
50 | O=C(NNC(=O)c1ccccc1-n1cccc1)c1ccc(Cl)nc1 | 9.06%
51 | O=C(N/N=C/c1cccnc1)c1ccccc1OCc1cccc(Br)c1 | -0.742%
52 | O=C(Cc1ccc(Cl)cc1)c1c[nH]c(C(=O)NCCCn2ccnc2)c1 | -18.5%
53 | O=C(OCc1nc2ccccc2s1)c1cnccn1 | 1.36%
54 | COc1ccc(/C=C2\SC(=O)N(CC(=O)NC3CCS(=O)(=O)C3)C2=O)cc1 (centres unmarked) | 14.4%
55 | Cc1nc2ccc(S(=O)(=O)N3CCCCC3)cc2s1 | 9.53%
56 | N#CCC(=O)Nc1ccc(C(=O)NCCC(c2ccccc2)c2ccccc2)cc1 | 17.5%
57 | Cc1nnc(SCC2=C(C(=O)O)N3C(=O)C(NC(=O)Cn4nc(C)c(Cl)c4C)C3SC2)s1 (centres unmarked) | 12.2%
58 | CCCCCC1CCC(c2ccc(/C(N)=N/O)cc2)CC1 (centres unmarked) | 15.2%
59 | CCC(=O)Nc1nc(N)n(-c2ccccc2)n1 | 16.3%
60 | COc1ccc(NC(=O)CN(C)C(=O)CNC(=O)C2CCCCC2)cc1 | 11.3%
61 | COc1ccccc1NC(=O)C1CCCN1S(=O)(=O)c1ccc(Cl)cc1 (centres unmarked) | 9.21%
62 | CC(C)c1cc(C(=O)N2CCCC(C(=O)c3ccc4ccccc4c3)C2)on1 (centres unmarked) | 7.35%
63 | CC(=O)Nc1ccc(NC(=O)Cn2cnc3c(nnn3Cc3ccc(F)cc3)c2=O)cc1 | 16.8%
64 | CCCc1cc(=S)n2c([nH]c3ccccc32)c1C#N | 4.04%
65 | O=S(=O)(c1ccc(NC(=S)N/N=C/c2ccc(Oc3ccccc3)cc2)cc1)N1CCOCC1 | 1.74%
66 | CC(Sc1ncnc2c1cnn2-c1ccccc1)C(=O)Nc1ccc(N2CCOCC2)cc1 (centres unmarked) | 12.4%
67 | CCOc1ccccc1C(=O)NCC(=O)NCC(c1ccc(OC)cc1)N1CCOCC1 (centres unmarked) | 0.417%
68 | CC(C)COC(=O)n1c(=O)oc2cc(S(=O)(=O)N3CCCCC3)ccc21 | -1.72%
69 | CCOc1cc(/C=C(\CC(=O)O)c2nc3ccccc3s2)ccc1OC | 19.5%

Row | SMILES | hERG current change (%, negative = inhibition) at 1uM
70 | Cc1cc(C)n2nc(C(=O)OCC(=O)Nc3ccc4c(c3)OCCO4)nc2n1 | 13.2%
71 | CCn1ccnc1CN1CCN(CCC(C)C)C(CCO)C1 (centres unmarked) | 6.84%
72 | Nc1nc(SCn2nnc3ccccc3c2=O)n[nH]1 | 1.98%
73 | CCOC(=O)C1(Cc2ccc(Cl)cc2)CCN(C(=O)C2=NNC(=O)CC2)CC1 | -61.2%
74 | O=C(CSc1nnc(NC(=O)C2CC2)s1)Nc1ccc2c(c1)OCCO2 | 16.3%
75 | COc1cc(O)c(C(CCN2CCN(c3ccccc3)CC2)c2ccc3c(c2)OCO3)c(OC)c1 (centres unmarked) | 5.8%
76 | CCn1c(O)c(N=Nc2cccc(S(=O)(=O)N3CCOCC3)c2)c(=O)n(CC)c1=S | -0.747%
77 | COc1cccc(C(=O)CN2C(=O)C(C)(C)Oc3ccc(C(=O)N4CCCCCC4)cc32)c1 | 14.6%
78 | CC(C)C[C@@H](CO)N1CCN(CCc2ccccc2)CCC1=O | -4.92%
79 | COCC(=O)Nc1ccccc1C(=O)NC(C)C | 13.4%
80 | COc1ccc(-c2nc(CSCC(=O)N3CCN(c4cccc(C)c4)C(C)C3)c(C)o2)cc1OC (centres unmarked) | -6.85%
81 | Cc1c(O)ccc(C(=O)CN2CC(C)OC(C)C2)c1O (centres unmarked) | 14.7%
82 | O=C(c1ccc(COc2ccccc2)o1)N1CCN(S(=O)(=O)c2ccccc2Cl)CC1 | 2.15%
83 | O=C(CSc1nnc(CNc2ccc(F)cc2)n1Cc1ccccc1)NCc1ccccc1 | 14.1%
84 | S=C(NCc1cccs1)Nc1cc(Cl)cc(Cl)c1 | 11%
85 | Cc1[nH]n(-c2ccccc2)c(=O)c1/C=N/N(c1ccccc1)c1ccccc1 | 9.4%
86 | CS(=O)(=O)Nc1ccc(C(=O)NCc2cccnc2)cc1 | 11.6%
87 | Cc1ccc(C)c(OCCC(=O)Nc2ccc(S(=O)(=O)N3CCCC3)cc2)c1 | 13.8%
88 | C/C(=N/O)c1cccc(N2Cc3ccccc3C2)c1 | 9.31%
89 | O=C(c1nc(-c2ccccc2)n(-c2ccccc2)n1)N1CCCCCC1 | -15.4%
